These results are taken from article PMC12136788.

This is one part of the list.

To fix the notation:
T1: UNK ZnF1-6 (called full-length) (human, UniProt Q9C0B0 30-357)
T1 sequence: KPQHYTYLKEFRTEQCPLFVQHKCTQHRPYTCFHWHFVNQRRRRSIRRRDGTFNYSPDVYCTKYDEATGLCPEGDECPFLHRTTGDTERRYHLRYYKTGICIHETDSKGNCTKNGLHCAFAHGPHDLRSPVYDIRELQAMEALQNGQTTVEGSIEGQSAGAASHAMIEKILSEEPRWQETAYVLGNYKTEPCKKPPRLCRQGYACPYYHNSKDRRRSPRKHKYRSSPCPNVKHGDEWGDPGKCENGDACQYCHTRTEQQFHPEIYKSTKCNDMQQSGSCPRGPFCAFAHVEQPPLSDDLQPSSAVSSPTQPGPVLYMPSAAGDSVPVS

B1: chr1:61462620:61462721:+|3pUTR|ENSG00000162599|unk|total|mutant (ssRNA)
RNA: GGGAGUUCUACAGUCCGACGAUCCUGUGGGCGUCCAUUCUUAUUCAACUAAAUCUCCACAGGUUUUUUGAGCUGGUGUGGAUCCGUUUAACUCUUGUAUUCAACCAUCCGUGCUACCACCUUCUCACAUUACAAUACAAUUACCAACAGAGGAUUGAGCAUCA
B2: chr12:110551788:110551968:-|CDS|ENSG00000196850|control|control|control (ssRNA)
RNA: GGGAGUUCUACAGUCCGACGAUCUUCUCAGGGACUUUAAUGCGGACGUGUGAACGUUUAGUAAAAGAAGGACGGUUCGUACCUAGUAAUCCCAUUGGAAUUCUCACCACAAGCUACUGUGAGUUGCUGCAAAAUAAAGUCCCUCAACAGAGGAUUGAGCAUCA
B3: ENSG00000107863:be:win_2951|CDS|ENSG00000107863|bound_else_gene|NA|bound_elsewhere_windowed (ssRNA)
RNA: GGGAGUUCUACAGUCCGACGAUCAGGAAGAGCAGCCCAUCAGUGUUAAUGCUUGCUUGAUAGACAUCUCUUACAGUGAGACCAAGAGGAAAAAUGUGUUUCGACUCACCACGUCCGACUGUGAAUGCCUGUUUCAGGCUGAAGCAACAGAGGAUUGAGCAUCA
B4: chrX:71300841:71300885:+|3pUTR|ENSG00000147140|msi1_unk|FALSE|overlapping (ssRNA)
RNA: GGGAGUUCUACAGUCCGACGAUCCCCCAUAUAUUACCCCUUCAUGUCCUAAAGAAGACAUUUUCUCUUAGAGAUUUUCAUUUUAGUGUAUCUUUAAAAAAAAAUCUUGUGUUAACUUGCCUCCAUCUUUUUCUUGGGUGAGGACAACAGAGGAUUGAGCAUCA
B5: ENSG00000070961:be:win_4851|3pUTR|ENSG00000070961|bound_else_gene|NA|bound_elsewhere_windowed (ssRNA)
RNA: GGGAGUUCUACAGUCCGACGAUCCAAUGUUUUUUUAAAAGACAUUUCAGCUUCUUUACUCAGUUCUGCAUAUACAGUGCAUCAGUCUGUUCUCUUUGACCACAAUUGGAAUACAUUUCAAGAUGGUAACAGCCCCAUGAAGUACAACAGAGGAUUGAGCAUCA
B6: chr20:53567570:53567671:-|3pUTR|ENSG00000171940|unk|FALSE|unique (ssRNA)
RNA: GGGAGUUCUACAGUCCGACGAUCUCACAAGCUGAGCCAUAUGUACAUAAUCUAGAUUUUGUUUUCAUAGUUUUGCACUUUUAUAGCCUAUUUUUGAAGAUUAACACAUUUGCAAGAUGAUUGACUCAAUCUUUGCCUAAUCCACAACAGAGGAUUGAGCAUCA

This assay concerns the target T1, UNK ZnF1-6 (called full-length). Kind of assay: nsRBNS (natural sequence RNA bind-n-seq); RBNS binding buffer (assumed for nsRBNS): 25 mM Tris pH 7.5, 150 mM KCl, 3 mM MgCl2, 0.01% Triton X-100, 500 ug/ml BSA, 20 U/ml SUPERase-In, 4 C; UNK is unkempt and MSI1 is Musashi-1; names of the RNAs are library labels; protein concentration not given here; high values mean tight binding.
B1 returned a binding signal of 0.442 enrichment R.
As to B2, the binding signal was 0.763 enrichment R.
Then B3, with 0.57 enrichment R.
B4 yielded a binding signal of 5.61 enrichment R.
B5 returned a binding signal of 0.423 enrichment R.
For B6, the binding signal stood at 3.86 enrichment R.
